Where “and” joins values, the source holds several entries; their conditions need not be identical. Equal entries are not always repeated. The campaign covered roughly 410,000 compounds. About 6,400 (1.6%) were called active. Inconclusive results, whose numbers are uncertain, are shown with a selection of clear calls. The call rests on the fitted dose curve; in most records, active means well fitted inhibition curve with a large enough effect; inconclusive means small, poorly fitted or top-dose-only effect; inactive means no such curve, though single readings can be large or run the other way. Where the call is inconclusive, the potency comes from a doubtful curve fit.
Molecular target: Glucagon-like peptide 1 receptor (Homo sapiens) (UniProt P43220)
Chain of UniProt P43220 (P43220 whole entry, looked up): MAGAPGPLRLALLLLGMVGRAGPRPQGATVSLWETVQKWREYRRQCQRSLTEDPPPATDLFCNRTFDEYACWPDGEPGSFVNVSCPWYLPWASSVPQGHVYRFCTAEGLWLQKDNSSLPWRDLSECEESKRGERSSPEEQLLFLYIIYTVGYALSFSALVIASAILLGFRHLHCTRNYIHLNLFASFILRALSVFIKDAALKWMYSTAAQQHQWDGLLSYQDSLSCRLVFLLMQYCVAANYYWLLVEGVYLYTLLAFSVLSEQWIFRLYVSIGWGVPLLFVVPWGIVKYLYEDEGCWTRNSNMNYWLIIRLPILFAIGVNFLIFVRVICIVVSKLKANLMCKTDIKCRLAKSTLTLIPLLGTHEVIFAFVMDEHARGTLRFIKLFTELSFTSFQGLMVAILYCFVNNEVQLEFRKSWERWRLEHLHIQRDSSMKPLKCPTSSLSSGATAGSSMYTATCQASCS
Test: qHTS of GLP-1 Receptor Inverse Agonists (Inhibition Mode); further: nearly all actives have a fitted effect of over 55% in size
Details: HEK293 GLP-1R CRE-luciferase, luminescence, 24 h, GLP-1R form is constitutively active; series mostly up to 38.3 µM
Procedure, shortened: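 Using stably transfected HEK293 (constitutively active GLP-1R, cAMP-luciferase reporter), compounds were incubated 24 hr and luciferase measured by luminescence.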
Potency means the concentration at half of the fitted maximal effect; tags describe the fitted curve by direction and shape.

SMILES | Potency
COc1ccc(-n2nc([N+](=O)[O-])c(=NC3CCN(Cc4ccccc4)CC3)n2O)cc1 | inconclusive: 5.62 µM [inhibitor, full curve, poor fit]
COc1ccc(C(=O)NCC2CCCO2)cc1S(=O)(=O)NCc1ccc(Cl)cc1 (stereo not drawn) | inactive
CC(C)Cc1ccc(S(=O)(=O)N2CCC(c3ccncc3)CC2)cc1 | inconclusive: 12.6 µM [inhibitor, partial curve, poor fit]
Cc1ccc(Cn2c(CN3CCC(C(=O)NCc4ccccc4C)CC3)cc3ccccc32)cc1 | inconclusive: 28.2 µM [inhibitor, single point]
Cc1ccccc1NC(=S)NCc1ccccc1 | inconclusive: 28.2 µM [inhibitor, single point]
COc1ccc(CCOC(=O)c2ccc(NC(=O)CC#N)cc2)cc1 | inactive
CNC(=O)c1c(NC(=O)c2ccc(S(=O)(=O)N3CC(C)OC(C)C3)cc2)sc2c1CCN(C(C)C)C2 (stereo not drawn) | inactive
COc1ccc(NC(=O)C2COc3ccccc3C2)cc1Cl (stereo not drawn) | inconclusive: 7.94 µM [inhibitor, partial curve]
CCOc1ccc(N(Cc2cc3ccc(C)cc3[nH]c2=O)S(=O)(=O)c2ccccc2)cc1 | inconclusive: 0.562 µM [inhibitor, full curve, poor fit]
Cc1ccc(NC(=O)Nc2c(Cl)cccc2Cl)cn1 | inconclusive: 28.2 µM [inhibitor, single point]
CN(C)S(=O)(=O)c1cccc(NC(=S)N/N=C/c2cccc(O)c2)c1 | inconclusive: 11.2 µM [inhibitor, single point]
CN(C)c1ccc(C=Cc2cnccn2)cc1 | inconclusive: 7.94 µM [inhibitor, partial curve, poor fit]
Cc1ccccc1CC(=O)Nc1sc(C(C)C)cc1C(=O)N1CCOCC1 | inconclusive: 28.2 µM [inhibitor, single point]
COc1cccc(CNC(=O)C(=O)NCCC2CCCCN2S(=O)(=O)c2ccc(C)cc2)c1 (stereo not drawn) | inconclusive: 14.1 µM [inhibitor, partial curve, poor fit]
Cc1ccc(OCCNC(=O)[C@H]2O[C@@H](n3ccc(N)nc3=O)[C@H](O)[C@@H]2O)cc1C | inactive
CCCCn1nnnc1C(c1cc2ccccc2o1)N1CCCCC1 (stereo not drawn) | inconclusive: 22.4 µM [inhibitor, single point]
CCOC(=O)c1c(C)n(-c2ccccc2)c2ccc(OC(=O)c3ccccc3NC(=O)C(C)C)cc12 | inconclusive: 28.2 µM [inhibitor, single point]
Cc1cc(NC(=O)C2CCCN(S(=O)(=O)c3cnc[nH]3)C2)ccc1Br (stereo not drawn) | inconclusive: 28.2 µM [inhibitor, single point]
COc1ccccc1NC(=O)N1CCN(Cc2ccc3c(c2)OCO3)CC1 | inconclusive: 10 µM [inhibitor, single point]
Cc1ccc(C)c(N2CCN(Cc3nnnn3C3CCCCC3)CC2)c1 | inconclusive: 11.2 µM [inhibitor, single point]
Clc1ccccc1OCCN1CCC(Cc2ccccc2)CC1 | inconclusive: 28.2 µM [inhibitor, single point]

SMILES | Potency
CCCN1C(=O)/C(=C\C=C2\N(CC)c3ccccc3C2(C)C)SC1=S | inconclusive: 1.12 µM [inhibitor, full curve, poor fit]
Cc1c(C(=O)NCCS(=O)(=O)N2CCN(c3ccccc3F)CC2)cccc1[N+](=O)[O-] | inconclusive: 2.82 µM [inhibitor, partial curve]
CCc1noc(N)c1C(=O)Nc1ccc(F)c(Cl)c1 | inconclusive: 28.2 µM [inhibitor, single point]
Cc1nn(CC(=O)NCc2ccc(F)cc2)c2ccccc12 | inactive
CCCN(Cc1cccs1)C(=O)Nc1cc(Cl)ccc1C | inconclusive: 5.62 µM [inhibitor, single point]
CCN(CC)C(=O)[C@H]1C[C@H](CC(=O)NCc2cccc(C(F)(F)F)c2)C(=O)N2CCc3c([nH]c4cc(-c5ccco5)ccc34)[C@]12C | inconclusive: 28.2 µM [inhibitor, single point]
CCC(C(=O)NC(C)(C)C)N(C(=O)Cn1nnc(-c2cccs2)n1)c1cnc2ccccc2c1 (stereo not drawn) | inconclusive: 28.2 µM [inhibitor, single point]
C[n+]1ccc(/C=N/Nc2nc(Cl)c(C#N)c(Cl)c2Cl)cc1 | inactive
CCCCCCNc1nc(NCc2ccco2)nc(OCC)n1 | inconclusive: 0.891 µM [inhibitor, full curve, poor fit]
CC(=O)N1CCN(c2ccccc2NC(=O)COc2ccc(Cl)cc2Cl)CC1 | inconclusive: 31.6 µM [inhibitor, single point]
COC(=O)C1=CN(c2ccc(F)cc2)C(N)=C(C#N)C1c1cccc(F)c1 (stereo not drawn) | inconclusive: 8.91 µM [inhibitor, partial curve, poor fit]
CCOc1ncccc1C(=O)OCc1ccc(C(=O)OC)cc1 | inactive
COc1ccc(F)cc1S(=O)(=O)Nc1ccc(C)cc1 | inconclusive: 12.6 µM [inhibitor, partial curve, poor fit]
Cc1ccc(C(NC(=O)C2CCCCC2)c2c(O)ccc3ccccc23)cc1 (stereo not drawn) | active: 4.47 µM
Cn1nc(-c2ccccc2)cc1NC(=O)Nc1ccccc1F | inconclusive: 15.8 µM [inhibitor, single point]
CCCOc1ccc(NC(=O)CC2C(=O)N(c3ccc(C)cc3)C(=O)N2C(C)C)cc1 (stereo not drawn) | inactive
CCOC(=O)c1c(C)[nH]c(C)c1C(=O)COC(=O)/C=C/c1cccc(C(F)(F)F)c1 | inconclusive: 20 µM [inhibitor, single point]
CCCCN1CC(COCc2ccccc2)Oc2cccc(NCc3ccc(OC)cc3)c2S1(=O)=O (stereo not drawn) | inconclusive: 11.2 µM [inhibitor, partial curve]
CCN(CC)CCCNC(=O)c1c(O)c2cc(F)cc3c2n(c1=O)C(C)CC3 (stereo not drawn) | active: 7.94 µM
CCOc1ccc(S(=O)(=O)NCCc2csc(-c3ccc(Cl)cc3)n2)cc1 | inconclusive: 28.2 µM [inhibitor, single point]
Cc1cc(N2CCN(c3ccc(F)cc3)CC2)nc2cc(O)ccc12 | inconclusive: 12.6 µM [inhibitor, partial curve, poor fit]

SMILES | Potency
O=C(O)CCC(=O)N1N=C(c2ccc(Br)cc2)CC1c1ccc(Br)cc1 (stereo not drawn) | inconclusive: 6.31 µM [inhibitor, partial curve, poor fit]
O=C(NCc1ccccc1)/C(NC(=O)c1ccccc1)=C(/Sc1ccccn1)c1ccccc1 | inconclusive: 12.6 µM [inhibitor, single point]
O=C(c1ccccc1)c1cc([N+](=O)[O-])ccc1N1CCOCC1 | inconclusive: 1.12 µM [inhibitor, full curve, poor fit]
COc1ccc(C(=O)/C=C/C(=O)N(Cc2ccc(F)cc2)C(C(=O)NC2CCCCC2)c2ccncc2)c(O)c1 (stereo not drawn) | inconclusive: 28.2 µM [inhibitor, single point]
CCCCN(CCCC)CCCNC(=O)C1CC(c2ccc(C(F)(F)F)cc2)=NO1 (stereo not drawn) | inconclusive: 7.94 µM [inhibitor, partial curve, poor fit]
CC(C)(C)OC(=O)Nc1ccc([C@@H](NC(=O)OC(C)(C)C)C(=O)OC(C)(C)C)cc1 | inactive
O=C(O)C(Cc1c[nH]c2ccccc12)NS(=O)(=O)c1ccc(Br)cc1 (stereo not drawn) | inactive
O=C(Nc1ccccc1F)N1CCc2ccccc2C1 | inconclusive: 28.2 µM [inhibitor, single point]
COc1cc(C(=S)N2CCOCC2)ccc1OC(=O)c1ccccc1C | inconclusive: 22.4 µM [inhibitor, single point]
Cc1[nH]c2c(Br)cccc2c1[C@H]1[C@@H](CC#N)C1(C)C | inconclusive: 10 µM [inhibitor, partial curve, poor fit]
CCOc1ccc(CNC(=O)c2ccc(Sc3ccc(Cl)cc3)c(NC(C)=O)c2)cc1 | inconclusive: 11.2 µM [inhibitor, partial curve, poor fit] and inconclusive: 11.2 µM [inhibitor, single point]
CCOc1ccc(NC(=O)/C=C/c2ccccc2)c([N+](=O)[O-])c1 | inactive
CCOC(=O)[C@]12CCCC=C1N(Cc1ccccc1)C(=O)[C@H](CC(=O)N1CCN(C(=O)c3ccco3)CC1)C2 | inactive
COc1cccc(NC(=S)NC2CC(C)CC(C)(C)C2)c1 (stereo not drawn) | active: 8.91 µM
CCCC(=O)Nc1ccc2c(c1)nc(CN1CCN(C(=O)OCC)CC1)n2C(C)C | inconclusive: 0.501 µM [inhibitor, full curve, poor fit]
COc1ccc(C(CNC(=O)c2ccc(C)c(S(=O)(=O)Nc3ccccc3OC)c2)N2CCCC2)cc1 (stereo not drawn) | inconclusive: 22.4 µM [inhibitor, single point]
Cc1ccc(S(=O)(=O)N(CC(=O)N/N=C/c2cccc3c2OCCO3)c2ccccc2F)cc1 | inconclusive: 14.1 µM [inhibitor, single point]
CCOC(=O)c1c(NC(=O)COc2cccc(C(F)(F)F)c2)sc2c1CCC(C)C2 (stereo not drawn) | inactive
COc1ccc(NC(=O)c2ccc(CN3C(=O)CCn4nc(C)cc43)cc2)c(OC)c1 | inactive
O=C(CCl)N(CCCNC(=O)C(F)(F)F)c1ccc([N+](=O)[O-])cc1 | inconclusive: 8.91 µM [inhibitor, partial curve, poor fit]
COc1cccc(/C=N/NC(=O)CSc2nnc(C)n2-c2ccccc2)c1OC | inactive

From PubChem BioAssay AID624417 (National Center for Advancing Translational Sciences (NCATS), 2012)
